# Test results reported in PubChem BioAssay AID624417 (National Center for Advancing Translational Sciences (NCATS), 2012).
# Out of some 410,000 compounds screened, about 6,400 (1.6%) were called active. The inconclusive results got no clear call from the source; some entries with a clear call stand among them for comparison. Calls come from the whole dose curve; as a rule, active = well fitted inhibition curve with a large enough effect; inconclusive = small, poorly fitted or top-dose-only effect; inactive = no such curve, though single readings can be large or run the other way. Potencies of inconclusive entries are left out as doubtful fits.
# Biological target: Glucagon-like peptide 1 receptor (Homo sapiens) (UniProt P43220)
# Test: qHTS of GLP-1 Receptor Inverse Agonists (Inhibition Mode); note: nearly all actives have a fitted effect of over 55% in size
# Settings: HEK293 GLP-1R CRE-luciferase, luminescence, 24 h, GLP-1R form is constitutively active; activity change, negative = inhibition: at 38.3 µM (top of the series) unless noted
# Outline: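 GLP-1R inverse agonism mode: basal reporter luminescence in engineered HEK293 cells measured after one day of compound exposure at 37 deg C, with a 12 min room-temperature detection step.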
# % is set by controls: 0 for no effect and ±100 for the full control effect; potency is the fitted concentration of half-maximal effect; tags give direction and shape of the fitted curve.
# Sequence of UniProt P43220 (P43220 whole entry, looked up): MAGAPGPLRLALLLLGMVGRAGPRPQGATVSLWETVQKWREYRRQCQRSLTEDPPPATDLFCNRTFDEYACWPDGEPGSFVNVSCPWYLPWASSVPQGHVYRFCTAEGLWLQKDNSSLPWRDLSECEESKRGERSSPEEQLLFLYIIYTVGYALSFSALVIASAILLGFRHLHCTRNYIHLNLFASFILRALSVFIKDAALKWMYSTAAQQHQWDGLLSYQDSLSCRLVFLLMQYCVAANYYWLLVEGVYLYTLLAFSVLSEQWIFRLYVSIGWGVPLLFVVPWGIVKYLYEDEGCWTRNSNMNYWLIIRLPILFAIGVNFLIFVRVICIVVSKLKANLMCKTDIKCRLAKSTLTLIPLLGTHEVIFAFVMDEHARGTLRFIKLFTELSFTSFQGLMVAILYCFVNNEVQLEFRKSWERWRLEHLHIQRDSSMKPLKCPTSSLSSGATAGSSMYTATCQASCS
SMILES,Potency,"activity change, negative = inhibition"
Cc1ccccc1-c1nc2cc(NC(=O)C3CC3)ccc2o1,"inconclusive [inhibitor, single point]",–
CC(=O)c1cccc(NC(=O)c2c(-c3ccccc3)c(-c3ccccc3)nn(C)c2=O)c1,–,inactive: -28.5%
Cc1ccccc1Nc1c(-c2cccc(N(C)C)c2)nc2ccc(Br)cn12,–,inactive: 4.45%
Cc1cc(F)ccc1-n1nnc(C(N)=O)c1C,–,inactive: 9.08%
Cc1ccc(-c2csc(NC(=O)c3ccc(Br)cc3)c2C(=O)O)cc1,–,inactive: 0.875%
CC1(c2ccccc2)NC(=O)N(CC(=O)Nc2nc(-c3ccccn3)cs2)C1=O (stereo unspecified),"inconclusive [inhibitor, single point]",–
OCCC1CN(Cc2nc(-c3ccccc3)cs2)CCN1CCc1ccccc1 (stereo unspecified),active: 10 µM,–
Cc1cccc(NC(=O)c2sc3nc4c(cc3c2N)CCCCCC4)c1C,"inconclusive [inhibitor, full curve, poor fit]",–
Clc1ccc(OCc2nc3ccccc3[nH]2)cc1,"inconclusive [inhibitor, single point]",–
O=C(Nc1cccc(C(F)(F)F)c1)OCCN1CCN(Cc2ccccc2)CCC1=O,"inconclusive [inhibitor, partial curve, poor fit]",–
O=C1/C(=C\c2c(NCCOCCO)nc3ccccn3c2=O)SC(=S)N1Cc1ccco1,"inconclusive [inhibitor, partial curve, poor fit]",–
O=C(Nc1cc(C(=O)N2CCCC2)ccc1N1CCCC1)c1ccccc1F,–,inactive: 0%
CC(NC(=O)c1ccc(NC(=O)c2nsc3ccccc23)cc1)c1ccccc1 (stereo unspecified),"inconclusive [inhibitor, partial curve]",–
COc1ccc2c(C(=O)c3ccc(C)cc3)n(Cc3ccc(C(N)=O)cc3)[n+]([O-])c2c1,–,inactive: 8.76%
OC(COC(c1ccccc1)c1ccccc1)CN1CCN(c2ccccn2)CC1 (stereo unspecified),"inconclusive [inhibitor, partial curve]",–
Cc1ccc(CN/C=C/C(=O)c2ccc(Br)cc2)cc1,"inconclusive [inhibitor, single point]",–
COc1ccc(OC)c(S(=O)(=O)N2Cc3ccccc3CC2C(=O)Nc2nccs2)c1 (stereo unspecified),"inconclusive [inhibitor, single point]",–
Cc1ccc(N(C)S(=O)(=O)c2ccc3[nH]c4c(c3c2)CCCC4)cc1,"inconclusive [inhibitor, single point]",–
O=C(COc1ccccc1)NCc1ccc2c(c1)CCN2C(=O)c1ccccc1,–,inactive: -5%
Cc1ccc(C)c(Oc2cc(NC(=O)CCCn3nc(C)c([N+](=O)[O-])c3C)cc([N+](=O)[O-])c2)c1,"inconclusive [inhibitor, partial curve, poor fit]",–
O=C(NC1CCCCC1)N1CCSC1=Nc1ccccc1,"inconclusive [inhibitor, partial curve, poor fit]",–
CNC(=O)C[C@H]1C(=O)N(C2CCCCC2)C[C@@H]1c1ccc(Br)cc1,–,inactive: -29.2%

SMILES,Potency,"activity change, negative = inhibition"
CCC(CC)C(=O)c1c[nH]c(C(=O)NN)c1,"inconclusive [inhibitor, full curve, poor fit]",–
O=C(CSc1ccccc1)NCc1ccc2c(c1)CCN2C(=O)c1ccc(Cl)cc1,–,inactive: 3.93%
O=C1CS(=O)(=O)N(Cc2ccccc2F)c2ccc(Br)cc21,"inconclusive [inhibitor, partial curve, poor fit]",–
COC(=O)C1=C(C)N(Cc2ccccc2)C(=NCc2ccccc2)N[C@H]1c1cccc(F)c1,"inconclusive [inhibitor, single point]",–
O=C(NC1CCCCCCC1)c1ccccc1-c1ccccc1,"inconclusive [inhibitor, single point]",–
Cc1cc(C)n(-c2ccc(NC(=O)C3CCCCN3Cc3cccc4c3OCO4)cc2)n1 (stereo unspecified),"inconclusive [inhibitor, partial curve]",–
CCNc1nc(NCC)nc(SCCOc2ccc(C)cc2)n1,"inconclusive [inhibitor, single point]",–
Cc1cc(Sc2ccc(Cl)cc2)nc2ccccc12,–,inactive: 3.8%
COc1cc(/C=C/C(=O)NC(C)C)ccc1OCc1ccccc1,"inconclusive [inhibitor, partial curve, poor fit]",–
COC(=O)c1cc(C#N)c(Oc2ccccc2OC)nc1C,–,inactive: 1.93%
Cc1ccc(NC(=O)c2ccc(NS(=O)(=O)c3cccc4cccnc34)cc2)cc1,"inconclusive [inhibitor, partial curve, poor fit]",–
CCN(CC)CCNC(=O)C(=O)NCC(c1cccnc1)N1CCN(c2ccccc2)CC1 (stereo unspecified),–,inactive: 12.3%
O=C(NCc1ccccc1)C1=C[C@H](c2ccc3c(c2)OCO3)C[C@H](OCc2ccc(CO)cc2)O1,"inconclusive [inhibitor, partial curve, poor fit]",–
COc1ccc2[nH]c(C)c(CCNC(=S)Nc3cccc(C)c3)c2c1,"inconclusive [inhibitor, partial curve, poor fit]",–
COc1ccc(OC)c(C(C[N+](=O)[O-])c2c(C)cc3ccccn23)c1 (stereo unspecified),"inconclusive [inhibitor, single point]",–
COc1ccc2c(c1)OC(=O)CC2c1cc(OC)c(OC)c(OC)c1 (stereo unspecified),"inconclusive [inhibitor, single point]",–
Cc1nn(Cc2c(F)cccc2Cl)c(C)c1[N+](=O)[O-],"inconclusive [inhibitor, single point]",–
COc1ccc(/C=N/NC(=O)CCn2cnc(-c3ccccc3)c2-c2ccccc2)cc1OC,–,inactive: -5.88%
O=C(Nc1cccc(Cl)c1)c1cc(-c2ccc3c(c2)OCCO3)on1,"inconclusive [inhibitor, single point]",–
CCNS(=O)(=O)c1ccc(NC(=O)Nc2cccc(OC)c2)cc1,"inconclusive [inhibitor, partial curve]",–
Cc1nnc(N2CCCC(C(=O)Nc3cccc(C(F)(F)F)c3)C2)c2nn(-c3ccccc3)c(C)c12 (stereo unspecified),–,inactive: -15.7%
Cc1onc(-c2ccccc2)c1C(=O)OCC(=O)N1CCC(C)CC1,"inconclusive [inhibitor, partial curve, poor fit]",–

SMILES,Potency,"activity change, negative = inhibition"
COc1ccc(Nc2cc(C(=O)N3CCc4ccccc4C3)c3ccccc3n2)c(OC)c1,"inconclusive [inhibitor, full curve, poor fit]",–
Brc1ccc(OCc2ccccc2)c(CNCc2ccncc2)c1,"inconclusive [inhibitor, single point]",–
Cc1ccc(NC(=O)CSc2nnc(-c3cnccn3)n2-c2ccccc2)cc1,"inconclusive [inhibitor, full curve, poor fit]",–
CCOc1nc(SCCOc2ccc(Cl)cc2Cl)nc(N(C)C)n1,"inconclusive [inhibitor, partial curve, poor fit]",–
COc1ccccc1-c1nc(C#N)c(N2CCC(Cc3ccccc3)CC2)o1,"inconclusive [inhibitor, partial curve, poor fit]",–
CCN(CCNC(=O)CS(=O)(=O)Cc1nc(-c2cccc(OC)c2)oc1C)c1ccccc1,"inconclusive [inhibitor, single point]",–
Cc1cc(C(=O)CN2C(=O)NC3(CCCC3)C2=O)c(C)n1-c1ccc2c(c1)OCO2,"inconclusive [inhibitor, partial curve, poor fit]",–
S=C(Nc1ccc(Cl)cc1Cl)N1CCCCC1,–,inactive: -26.4%
CCN1C(=O)C(Cc2nc3ccccc3c(=O)n2-c2ccc(OC)cc2)c2cc(C)ccc21 (stereo unspecified),–,inactive: 3.97%
COCCNC(=O)C1(C)CCCN(Cc2ccc(-c3ccccc3)o2)C1 (stereo unspecified),"inconclusive [inhibitor, single point]",–
COc1ccc(-c2cc(NCc3ccccn3)n3ncnc3n2)cc1,–,inactive: 8.11%
CCOc1ccccc1NC(=O)CN1CCC(C(=O)c2ccc(OC)cc2)CC1,"inconclusive [inhibitor, partial curve, poor fit]",–
Cc1ccc(C)c(Nc2nc(-c3ccccc3)c3cc(Br)ccc3n2)c1,–,inactive: -75.8%
Cc1cc(O)c(C(C)C)cc1NC(=O)c1cccc(Cl)c1,"inconclusive [inhibitor, single point]",–
COC(=O)c1ccc(C(=O)OC)c(NC(=O)CN(C)Cc2ccccc2)c1,"inconclusive [inhibitor, single point]",–
Cc1cc(S(=O)(=O)N2CCN(C(=O)CCC(=O)N3CCOCC3)CC2)ccc1Br,"inconclusive [inhibitor, partial curve, poor fit]",–
S=C(NCc1ccco1)N1CCN(c2ccccc2Cl)CC1,"inconclusive [inhibitor, single point]",–
Cc1nc2c(=O)[nH]c(=S)[nH]c2[nH]c1=O,–,inactive: 1.52%
CC(C)(C)NCc1cc(Br)ccc1OCc1cccs1,"inconclusive [inhibitor, partial curve, poor fit]",–
CN(C)c1ccc(C(c2ccc(N(C)C)cc2)c2ccc([N+](=O)[O-])cc2)cc1,"inconclusive [inhibitor, full curve, poor fit]",–
Cc1ccccc1OCC(=O)N/N=C/c1cccc(Oc2ccc([N+](=O)[O-])cc2[N+](=O)[O-])c1,"inconclusive [inhibitor, partial curve, poor fit]",–
Cc1ccc(Cc2c(-c3ccco3)nc3c4ccccc4ccn23)cc1,"inconclusive [inhibitor, partial curve, poor fit]",–
